138 sequences from article PMC5515408 can be followed below.

This is one part of the list. At the low end of the ranking, values are background and their order means little.

In the assay the test system is MYC (p64) + MAX (p21), in MYC:MAX. Description: protein-binding microarray (anti-MAX antibody). The following applies: PBM: 15 mM Tris-HCl pH 7.5, 100 mM KCl, 0.075% NP40, 7.5 mM beta-mercaptoethanol, 375 ng/ul BSA, 8 ng/ul poly(dA-dT):(dA-dT), 550 ng complex, 60 min, room …; high values mean tight binding; double strand, one strand shown; sequences stand for … in CCGGC…TTAATAGCTAAGATTACTATATCGACG
In the case of TGAATTCTGGTA, the binding signal (log2 normalized fluorescence) worked out at 0.0878.
In the case of TGATCAACAGTA it was -0.0508; in that of TGAGTTCCCGTA, 0.0824; in that of AGAAACGTGTTA, 0.573.
In the case of TGAGTCAATGTA it was -0.11.
In the case of TGACTTCACGTA it was 0.249; in that of TGACCCCGCGTA, 0.242.
For the sequence TGACACGTGACG, the binding signal (log2 normalized fluorescence) is 0.654.
As to TTACACATGGTA, the binding signal (log2 normalized fluorescence) amounted to 0.641.
In the case of TGAAAAACGGTA it was -0.138; in that of TGACCTGCGGTA, 0.144.
TGACGCCCTGTA: the binding signal (log2 normalized fluorescence) came out at 0.133.
In the case of TCGATCTTGTTC it was -0.147; in that of CGACACGTCGTA, 0.338.
In the case of TGAGAGAAGGTA, the binding signal (log2 normalized fluorescence) is -0.176.
Consider TGACTATATGTA, for which the binding signal (log2 normalized fluorescence) was determined as 0.0227.
In the case of TGATCTCTGGTA it was -0.209; in that of TGAGCGGATGTA, -0.0384.
In the case of TGAACCCTCGTA it was 0.0755; in that of TGAGTAATAGTA, -0.161.
In the case of TGATGGTGAGTA it was 0.0493.
With TGACGGGACGTA, the binding signal (log2 normalized fluorescence) was 0.123.
In the case of TGACCCCTCGTA it was 0.296; in that of TGACTTGTAGTA, 0.0926.
In the case of TGACTTAATGTA it was 0.12; in that of TGAAAACCCGTA, 0.0927; in that of TGAGTCGGCGTA, -0.0133.
In the case of TGACACGTGTTC it was 0.738; in that of TGAAGGGGTGTA, 0.418; in that of TGATAACTTGTA, 0.0225.
In the case of TGCCACGTGATA, the binding signal (log2 normalized fluorescence) came to 0.881.
In the case of AGCTACGTGGTA it was 0.389; in that of TGACCCGTTGTG, 0.189; in that of ATGAGTATTCGC, 0.311.
As to TGACACGCCGTC, the binding signal (log2 normalized fluorescence) amounted to 0.368.
As for TGATTGTGGGTA, the binding signal (log2 normalized fluorescence) was 0.0321.
In the case of TGATGAAGTGTA it was -0.0759; in that of TGACCCTTAGTA, 0.0901.
In the case of TCACGATGGGGC it was 0.398; in that of TGACCGCTTGTA, 0.252.
As to TGGGGCGTGGTA, the binding signal (log2 normalized fluorescence) is 0.471.
In the case of TGACGTGCAGTA it was 0.418; in that of TGAAATCGCGTA, 0.18.
In the case of TGATAACAAGTA it was -0.0262.
In the case of TGATTGAATGTA it was -0.104; in that of TGATGTGATGTA, 0.165.
In the case of TGACACGTTGCA, the binding signal (log2 normalized fluorescence) was 0.792.
In the case of TGAGGAACAGTA it was -0.00619; in that of TGAGGTATCGTA, -0.0909; in that of TGAAGCAAGGTA, 0.37.
In the case of TGAGGAATCGTA it was -0.205; in that of TGCTTCGTGGTA, 0.286; in that of TGAAGCTGGGTA, -0.0941.
For the sequence TGAATCTGGGTA, the binding signal (log2 normalized fluorescence) was -0.0547.
In the case of TGAGGACCTGTA it was 0.0336; in that of TGAAGAAACGTA, -0.0283; in that of TGATTCCGGGTA, -0.26.
With TGAAGGTTTGTA, the binding signal (log2 normalized fluorescence) amounted to 0.0558.
In the case of TGACGAATTGTA it was -0.0771; in that of TGATTGCATGTA, 0.261; in that of TGGCAAGGGGTA, 0.235.
AGACACGAGGTT: the binding signal (log2 normalized fluorescence) stood at 0.64.
In the case of TGAAAAGGGGTA it was 0.161; in that of TTTACATATAAT, 0.255; in that of TGAATGGCTGTA, 0.155.
TGACCCGATGTA: the binding signal (log2 normalized fluorescence) amounted to 0.291.
Consider TGATATGCAGTA, for which the binding signal (log2 normalized fluorescence) was found to be 0.103.
In the case of TGATCGCTGGTA it was -0.12.
On to TGAGCTTTCGTA, for which the binding signal (log2 normalized fluorescence) came out at 0.0217.
In the case of TGAAGAATCGTA, the binding signal (log2 normalized fluorescence) worked out at 0.0539.
In the case of TGACCAAGAGTA it was 0.0715.
Take TGAAGGTATGTA: the binding signal (log2 normalized fluorescence) is 0.216.
In the case of TATGATTACGTC it was -0.0777.
Turning to TGAGCACCGGTA, the binding signal (log2 normalized fluorescence) stood at 0.257.
In the case of TGAGGCCAGGTA it was -0.0646; in that of TGTCCCGTGGTA, 0.344.
In the case of TGAAAGCTCGTA it was -0.115; in that of TGACATGCCGTA, 0.332; in that of TGACAAGACGTA, 0.244.
In the case of TGAGTCCATGTA it was 0.245; in that of TGAAACTGAGTA, 0.00205.
TGATTAACCGTA: the binding signal (log2 normalized fluorescence) was 0.0582.
In the case of TGATGACCAGTA it was -0.073; in that of TGAAATCCAGTA, 0.0553; in that of TGAGTTCGGGTA, -0.228.
In the case of TTTTACGTGGTA it was 0.313.
In the case of TGAGCACGAGTA it was 0.508.
Consider TGAGTTTTAGTA, for which the binding signal (log2 normalized fluorescence) was -0.0871.
With TGAGCGAACGTA, the binding signal (log2 normalized fluorescence) is 0.18.
In the case of TGAATAGGGGTA it was 0.121; in that of AGACACGTCGTA, 0.32; in that of TGACAGTTGGTA, 0.112.
In the case of TCACACGGGTTA it was 0.461; in that of TGACACGTAGAA, 0.388; in that of TGAAGTCTTGTA, -0.149.
In the case of TGAGTTCAAGTA it was -0.0465.
Take TGACGAAATGTA: the binding signal (log2 normalized fluorescence) is -0.0918.
Consider TGATCACCTGTA, for which the binding signal (log2 normalized fluorescence) was 0.245.
As to TGATGATGAGTA, the binding signal (log2 normalized fluorescence) is -0.0716.
In the case of TGACCAAGTGTA it was 0.214; in that of TGACTAGTGTTA, 0.197.
In the case of TGAGCGCGGGTA it was 0.184.
Take TGATTAGAGGTA: the binding signal (log2 normalized fluorescence) was -0.127.
In the case of TGACGTCCCGTA it was 0.132; in that of TGAGCGGAAGTA, -0.124.
In the case of GGTCACGTGGTA, the binding signal (log2 normalized fluorescence) worked out at 0.805.
In the case of TGATACGGGGAA it was -0.00569; in that of TGATGATTCGTA, -0.0178.
In the case of TGAATGACAGTA it was 0.0219.
For the sequence TGATCCACCGTA, the binding signal (log2 normalized fluorescence) was found to be 0.16.
In the case of TGAAACGAGGCA it was 0.405; in that of TGATATTGAGTA, 0.0488; in that of TGAGTGCATGTA, 0.195.
In the case of TGAACTTGCGTA it was 0.264; in that of TGAGTGCTCGTA, 0.257; in that of TGACAGGCTGTA, 0.315.
Regarding TTCGATCCTGCA, the binding signal (log2 normalized fluorescence) is 0.122.
Take TGAGTGAGTGTA: the binding signal (log2 normalized fluorescence) turned out to be 0.08.
In the case of TGAGGTATAGTA it was -0.129; in that of TGACCAGTTGTA, 0.159; in that of TGAATTGACGTA, -0.0295.
In the case of TGATTCATAGTA it was -0.149; in that of TGATCTATGGTA, -0.0645.
In the case of TGAGGCGAAGTA it was 0.0114; in that of TGATCGTGAGTA, 0.157; in that of TGATACTAGGTA, -0.0149.
Take TGATATCTTGTA: the binding signal (log2 normalized fluorescence) was -0.0379.
As to TGACGCCCAGTA, the binding signal (log2 normalized fluorescence) is 0.158.
In the case of TGAATACTTGTA it was 0.091; in that of TGATGACGGGTA, -0.0248.
In the case of TTCAACGTGGTA it was 0.604; in that of TGAACGCGTGTA, 0.587; in that of TGAACATTTGTA, 0.134.
On to TGAGGTAACGTA, for which the binding signal (log2 normalized fluorescence) is -0.0392.
In the case of TGACCTAAGGTA it was -0.0575; in that of GGACACGTCGTA, 0.287.
For the sequence TGAGGCCTCGTA, the binding signal (log2 normalized fluorescence) was found to be 0.0501.
In the case of AGACACGTGTTA it was 0.993.
